# In the supplement of paper PMC8728848:
# The list shows a part of the results.
# B1: GS7807E-bfa-538-23-538 (Bacteroides fragilis) (protein)
# chain: TDSFESFNTNEAGFDNDSKKQDFNYYGIPLGIIQQGIYFNYDWGSGKNWPFQTMQNLGADLFSGYVHDFNPFNEGKNNSTYYMMDGWNGSTWDNTYGYIMPEVQKSETINEKDNIGFFGITKILKVELMHRLSDLYGPIVYTQFGSKTGSTPDTQQEAYKAFFNDLDTGIAKIREYQKANPDIESFAKFDILMPQGKRTFSEWIRFANSLRLRLAVRIAMADSKLAVAEAQKALTDEEGLLEGNDEVVAVSTSSGYTNPFGEINKAWGEVFMNANMESLLVGYEDPRMEKYFDKATGSDATSLIDYKGTYKGIRQGTGFSHKNYNGHSKSTITQQTDAVLMTPAEVWFLRAEAALRGWSSESVKDCYEKGVKASFAQWGAAGAEAYLESDRKPSDYVDAFKAANNVKAVNTLTPKWDDAAGNEDKLGRIITQKWLAMFPEGGEAWAEQRRTGYPRLFPVLVNQSEGTVDTNLGPRRLNFFVGIKTTNPEQYTQLVNALGGIDNCGTRLWWDTGRNF
# Key:
# Assay in all cases: glycan array binding signal (z-score within array); higher = stronger binding
# Settings in all cases: glycan notation: IUPAC condensed, linker removed
# Neu5Ac(a2-8)Neu5Ac = biological target: Neu5Ac(a2-8)Neu5Ac
# In short: (§1)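 From the Consortium for Functional Glycomics database, 3228 arrays were curated, keeping only those whose protein sequence was available. Binding is given as a within-array Z-score averaged across arrays sharing a protein sequence and across linkers. Negative Z-scores can be read as non-binding.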
# [1] = biological target: Neu5Ac(a2-8)Neu5Ac(a2-3)Gal(b1-3)GalNAc(b1-4)[Neu5Ac(a2-3)]Gal(b1-4)Glc
# In short: as §1
# [2] = biological target: Neu5Ac(a2-8)Neu5Ac(a2-3)Gal(b1-3)GalNAc(b1-4)[Neu5Ac(a2-8)Neu5Ac(a2-3)]Gal(b1-4)Glc
# In short: as §1
# [3] = biological target: Neu5Ac(a2-8)Neu5Ac(a2-3)Gal(b1-4)Glc
# In short: as §1
# [4] = biological target: Neu5Ac(a2-8)Neu5Ac(a2-3)Gal(b1-4)GlcNAc
# In short: as §1
# [5] = biological target: Neu5Ac(a2-8)Neu5Ac(a2-3)[Gal(b1-3)GalNAc(b1-4)]Gal(b1-4)Glc
# In short: as §1
# [6] = biological target: Neu5Ac(a2-8)Neu5Ac(a2-3)[GalNAc(b1-4)]Gal(b1-4)Glc
# In short: as §1
# [7] = biological target: Neu5Ac(a2-8)Neu5Ac(a2-8)Neu5Ac
# In short: as §1
# [8] = biological target: Neu5Ac(a2-8)Neu5Ac(a2-8)Neu5Ac(a2-3)Gal(b1-4)Glc
# In short: as §1
# [9] = biological target: Neu5Ac(a2-8)Neu5Ac(a2-8)Neu5Ac(a2-3)[Gal(b1-3)GalNAc(b1-4)]Gal(b1-4)Glc
# In short: as §1
# [10] = biological target: Neu5Ac(a2-8)Neu5Ac(a2-8)Neu5Ac(a2-3)[GalNAc(b1-4)]Gal(b1-4)Glc
# In short: as §1
# [11] = biological target: Neu5Ac(a2-8)Neu5Ac(a2-8)Neu5Ac(a2-8)Neu5Ac(a2-3)[GalNAc(b1-4)]Gal(b1-4)Glc
# In short: as §1
# [12] = biological target: Neu5Ac(a2-8)Neu5Gc(a2-3)Gal(b1-4)GlcNAc
# In short: as §1
# [13] = biological target: Neu5Ac(b2-6)Gal(b1-4)GlcNAc
# In short: as §1
# Neu5Ac(b2-6)GalNAc = biological target: Neu5Ac(b2-6)GalNAc
# In short: as §1
# [14] = biological target: Neu5Ac9Ac(a2-3)Gal(b1-3)GlcNAc
# In short: as §1
# [15] = biological target: Neu5Ac9Ac(a2-3)Gal(b1-4)GlcNAc
# In short: as §1
# [16] = biological target: Neu5Ac9Ac(a2-6)Gal(b1-4)GlcNAc
# In short: as §1
# [17] = biological target: Neu5Gc(a2-3)Gal(b1-3)GlcNAc
# In short: as §1
# [18] = biological target: Neu5Gc(a2-3)Gal(b1-3)[Fuc(a1-4)]GlcNAc
# In short: as §1
# Neu5Gc(a2-3)Gal(b1-4)Glc = biological target: Neu5Gc(a2-3)Gal(b1-4)Glc
# In short: as §1
# [19] = biological target: Neu5Gc(a2-3)Gal(b1-4)GlcNAc
# In short: as §1
# [20] = biological target: Neu5Gc(a2-3)Gal(b1-4)GlcNAc(b1-3)Gal(b1-4)GlcNAc(b1-2)Man(a1-3)[Neu5Gc(a2-3)Gal(b1-4)GlcNAc(b1-3)Gal(b1-4)GlcNAc(b1-2)Man(a1-6)]Man(b1-4)GlcNAc(b1-4)GlcNAc
# In short: as §1
# [21] = biological target: Neu5Gc(a2-3)Gal(b1-4)[Fuc(a1-3)]GlcNAc
# In short: as §1
# [22] = biological target: Neu5Gc(a2-6)Gal(b1-4)GlcNAc
# In short: as §1
# Neu5Gc(a2-6)GalNAc = biological target: Neu5Gc(a2-6)GalNAc
# In short: as §1
# [23] = biological target: Neu5Gc(a2-8)Neu5Ac(a2-3)Gal(b1-4)GlcNAc
# In short: as §1
# [24] = biological target: Neu5Gc(a2-8)Neu5Gc(a2-3)Gal(b1-4)GlcNAc
# In short: as §1
# [25] = biological target: Neu5Gc(a2-8)Neu5Gc(a2-3)Gal(b1-4)GlcNAc(b1-3)Gal(b1-4)GlcNAc
# In short: as §1
# [26] = biological target: Neu5Gc(a2-8)Neu5Gc(a2-6)Gal(b1-4)GlcNAc
# In short: as §1
# [27] = biological target: Neu5Gc(b2-6)Gal(b1-4)GlcNAc
# In short: as §1
binder,measurement,setting,value
B1,glycan array binding signal (z-score),Neu5Ac(a2-8)Neu5Ac,-0.676
same,glycan array binding signal (z-score),[1],-0.624
same,glycan array binding signal (z-score),[2],0.733
same,glycan array binding signal (z-score),[3],-0.715
same,glycan array binding signal (z-score),[4],-0.696
same,glycan array binding signal (z-score),[5],0.075
same,glycan array binding signal (z-score),[6],1.11
same,glycan array binding signal (z-score),[7],-0.676
same,glycan array binding signal (z-score),[8],-0.645
same,glycan array binding signal (z-score),[9],-0.539
same,glycan array binding signal (z-score),[10],2.93
same,glycan array binding signal (z-score),[11],1.08
same,glycan array binding signal (z-score),[12],-0.699
same,glycan array binding signal (z-score),[13],-0.415
same,glycan array binding signal (z-score),Neu5Ac(b2-6)GalNAc,-0.67
same,glycan array binding signal (z-score),[14],-0.695
same,glycan array binding signal (z-score),[15],-0.718
same,glycan array binding signal (z-score),[16],-0.392
same,glycan array binding signal (z-score),[17],-0.705
same,glycan array binding signal (z-score),[18],-0.681
same,glycan array binding signal (z-score),Neu5Gc(a2-3)Gal(b1-4)Glc,-0.692
same,glycan array binding signal (z-score),[19],-0.662
same,glycan array binding signal (z-score),[20],-0.632
same,glycan array binding signal (z-score),[21],-0.501
same,glycan array binding signal (z-score),[22],-0.682
same,glycan array binding signal (z-score),Neu5Gc(a2-6)GalNAc,0.238
same,glycan array binding signal (z-score),[23],-0.59
same,glycan array binding signal (z-score),[24],-0.696
same,glycan array binding signal (z-score),[25],-0.206
same,glycan array binding signal (z-score),[26],-0.401
same,glycan array binding signal (z-score),[27],1.98
